This passage reports relative cell viability results from the supplement of paper PMC10670038.

Where a name gives a salt, the structure may show the parent alone. ± gives the standard deviation of the averaged measurements. In all, about 2,000 compounds were measured (“relative cell viability vs DMSO, compound alone”: median about 1.1, lowest 2% from about 0.29 on). Some of the results follow.

The assay has as its system TE10. Description: relative cell viability vs DMSO, compound alone (fraction); TE10 is an esophageal squamous carcinoma line; higher = less cytotoxic. To be noted: 2 µM; 48 h. The procedure: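 TE10 ESCC cells (1,000/well, 384-well plates) were treated with Selleck bioactive library compounds at 2 uM alone for 48 h. Viability was read by CellTiter-Glo and expressed relative to DMSO wells. Two technical replicates (A, B).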
Turning to `CCCC(=O)Nc1ccc(OCC(O)CNC(C)C)c(C(C)=O)c1` (centres undefined) [Acebutolol HCl], the relative cell viability was 1.01 ± 0.2.

In the case of `COc1ccnc2[nH]cc(C(=O)C(=O)N3CCN(C(=O)c4ccccc4)C[C@H]3C)c12`, the relative cell viability was determined as 1.16 ± 0.027.

`C[C@@H]1O[C@@H](OC[C@H]2O[C@@H](Oc3c(-c4ccc(O)c(O)c4)oc4cc(O)cc(O)c4c3=O)[C@H](O)[C@@H](O)[C@@H]2O)[C@H](O)[C@H](O)[C@H]1O` [Rutin]: the relative cell viability is 1.08 ± 0.071.

The compound `CN1[C@@H]2CC[C@H]1C[C@@H](OC(c1ccccc1)c1ccccc1)C2` [Benztropine mesylate] displayed a relative cell viability of 1.08 ± 0.096.

Regarding `CO/N=C(\C(=O)N[C@@H]1C(=O)N2C(C(=O)O)=C(CSC(=O)c3ccco3)CS[C@H]12)c1csc(N)n1` [Ceftiofur HCl], the relative cell viability was determined as 0.997 ± 0.043.

`COc1nc(C)cnc1NS(=O)(=O)c1cccnc1-c1ccc(-c2nnco2)cc1` [Zibotentan (ZD4054)] gave a relative cell viability of 1.183 ± 0.011.

`C/C(O)=C(\C#N)C(=O)Nc1ccc(C(F)(F)F)cc1` [Teriflunomide] displayed a relative cell viability of 1.02 ± 0.018.

`Nc1nccc2c1ncn2C1C=C(CO)C(O)C1O` (centres undefined) [3-Deazaneplanocin A (DZNeP)]: the relative cell viability was 0.908 ± 0.019.

As to `Cc1nc(N(C)C(=O)Cc2ccc(-c3ccccn3)cc2)sc1S(N)(=O)=O` [Pritelivir (BAY 57-1293)], the relative cell viability was determined as 1.11 ± 0.032.

On to `Cn1cc(/C=C/C(=O)c2cccc(F)c2)cc1/C=C/C(=O)NO`, for which the relative cell viability came out at 1.11 ± 0.077.

With `N[C@@H](CC(=O)N1CCn2c(nnc2C(F)(F)F)C1)Cc1cc(F)c(F)cc1F` [Sitagliptin phosphate monohydrate], the relative cell viability came out at 1.17 ± 0.047.

For `C[C@@H]1O[C@@H](O[C@H]2[C@H](Oc3cc(O)c4c(c3)O[C@H](c3ccc(O)cc3)CC4=O)O[C@H](CO)[C@@H](O)[C@@H]2O)[C@H](O)[C@H](O)[C@H]1O` [Naringin], the relative cell viability was 1.02 ± 0.027.

`Cn1cc(C2=C(c3cn(CCCSC(=N)N)c4ccccc34)C(=O)NC2=O)c2ccccc21` [Ro 31-8220 Mesylate] gave a relative cell viability of 1.04 ± 0.0087.

`CNCC[C@@H](Oc1ccccc1C)c1ccccc1` [Atomoxetine HCl]: the relative cell viability worked out at 1.04 ± 0.013.

The compound `Cc1ccc(C(=O)C(C)CN2CCCCC2)cc1` (centres undefined) [Tolperisone HCl] came in with a relative cell viability of 1.01 ± 0.049.

`NS(=O)(=O)C#Cc1ccccc1` [Pifithrin-μ] had a relative cell viability of 0.726 ± 0.036.

`C[C@@H](Oc1cc(-c2cnn(C3CCNCC3)c2)cnc1N)c1c(Cl)ccc(F)c1Cl` returned a relative cell viability of 0.997 ± 0.053.

In turn, `Cc1cc(Nc2ncc(Cl)c(Nc3ccccc3S(=O)(=O)C(C)C)n2)c(OC(C)C)cc1C1CCNCC1` showed a relative cell viability of 0.9178 ± 0.0036.

`O=C(O)Cc1cc(I)c(Oc2ccc(O)c(I)c2)c(I)c1` [Tiratricol] showed a relative cell viability of 1.17 ± 0.032.

`CCC(CC)(NC(=O)C(C)C)C(=O)N[C@@H](CCCN=C(N)N)C(=O)NC1(C(=O)NC(c2ccc(F)cc2)c2ccc(F)cc2)CCCC1`: the relative cell viability was determined as 1.067 ± 0.0047.

With `CCCc1nc2c(C)cc(-c3nc4ccccc4n3C)cc2n1Cc1ccc(-c2ccccc2C(=O)O)cc1` [Telmisartan], the relative cell viability worked out at 1.02 ± 0.046.

In turn, `COCCCOc1cc(C[C@@H](C[C@H](N)[C@@H](O)C[C@H](C(=O)NCC(C)(C)C(N)=O)C(C)C)C(C)C)ccc1OC` [Aliskiren Hemifumarate] gave a relative cell viability of 1.19 ± 0.037.

Regarding `Cc1ccc(C(=O)N(CCCN)[C@@H](c2nc3cc(Cl)ccc3c(=O)n2Cc2ccccc2)C(C)C)cc1`, the relative cell viability was determined as 0.967 ± 0.04.

With `CC1=CC(=O)c2ccccc2C1=O` [Menadione], the relative cell viability was determined as 0.981 ± 0.01.

`CC(=O)/N=c1/sc(S(N)(=O)=O)nn1C` [Methazolamide] came in with a relative cell viability of 1.2 ± 0.061.

`COc1cc2ncnc(Nc3ccc(F)c(Cl)c3)c2cc1NC(=O)/C=C/CN1CCCCC1` registered a relative cell viability of 1.03 ± 0.014.

In the case of `CCCCC1C(=O)N(c2ccccc2)N(c2ccccc2)C1=O` [Phenylbutazone], the relative cell viability was 0.943 ± 0.022.

In turn, `Nc1ncnc2c1nc(Br)n2[C@@H]1O[C@@H]2COP(=O)(O)O[C@H]2[C@H]1O` [8-Bromo-cAMP] registered a relative cell viability of 0.858 ± 0.024.

The compound `CN(C)c1cc(NC(=O)CNC(C)(C)C)c(O)c2c1CC1CC3C(N(C)C)C(=O)C(C(N)=O)=C(O)C3(O)C(=O)C1=C2O` (centres undefined) [Tigecycline] displayed a relative cell viability of 1.111 ± 0.0089.

`COc1cc2c(cc1Cc1cccc(Cl)c1F)c(=O)c(C(=O)O)cn2[C@H](CO)C(C)C` [Elvitegravir (GS-9137, JTK-303)]: the relative cell viability amounted to 1.0429 ± 0.00053.

`COc1ccc2cc3[n+](cc2c1OC)CCc1cc2c(cc1-3)OCO2` [Berberine HCl]: the relative cell viability was determined as 1.22 ± 0.017.

With `Cn1sc(=O)n(Cc2ccccc2)c1=O`, the relative cell viability turned out to be 1.06 ± 0.025.

As for `CC(=O)NC[C@H]1CN(c2ccc(N3CCOCC3)c(F)c2)C(=O)O1` [Linezolid], the relative cell viability was 1.11 ± 0.068.

Compound `Cc1nccn1CC1CCc2c(c3ccccc3n2C)C1=O` (centres undefined) [Ondansetron HCl] returned a relative cell viability of 1.19 ± 0.11.

Turning to `COc1ccc2c(c1)c(CC(=O)OCC(=O)O)c(C)n2C(=O)c1ccc(Cl)cc1` [Acemetacin], the relative cell viability was found to be 1.13 ± 0.021.

`CC1=C(C(=O)O)N2C(=O)[C@@H](NC(=O)[C@H](N)c3ccccc3)[C@H]2SC1` [Cephalexin] yielded a relative cell viability of 1.159 ± 0.004.

`CC[C@H](C)C(=O)O[C@H]1C[C@H](O)C=C2C=C[C@H](C)[C@H](CC[C@@H](O)C[C@@H](O)CC(=O)O)[C@H]21` [Pravastatin sodium] showed a relative cell viability of 0.871 ± 0.14.

`Nc1ccccc1NC(=O)c1ccc(CNc2nccc(-c3cccnc3)n2)cc1` [Mocetinostat (MGCD0103)] showed a relative cell viability of 0.33 ± 0.063.

Turning to `COc1cc(-c2cc(-c3ccc(N4CCNCC4)cc3)cnc2C)cc(OC)c1OC`, the relative cell viability came out at 1.16 ± 0.019.

As to `CC(C)(C)OC(=O)Nc1ccc(-c2cc(C(=O)NCCCCCCC(=O)NO)no2)cc1`, the relative cell viability is 0.582 ± 0.038.

For the compound `COc1cc(-c2cc(-c3cccc(O)c3)cnc2N)cc(OC)c1OC`, the relative cell viability came out at 1.21 ± 0.0055.

Turning to `COc1cc2ncnc(Nc3ccc(O)c(Br)c3)c2cc1OC`, the relative cell viability was found to be 1.223 ± 0.0039.

`O=C(O)c1ccc(O)c2ncccc12` returned a relative cell viability of 1.11 ± 0.036.

Consider `CO[C@H]1C[C@@H]2CC[C@@H](C)[C@@](O)(O2)C(=O)C(=O)N2CCCC[C@H]2C(=O)O[C@H]([C@H](C)C[C@@H]2CC[C@H](n3cnnn3)[C@H](OC)C2)CC(=O)[C@H](C)/C=C(\C)[C@@H](O)[C@@H](OC)C(=O)[C@H](C)C[C@H](C)/C=C/C=C/C=C/1C` [Zotarolimus(ABT-578)], for which the relative cell viability came out at 0.888 ± 0.073.

Take `CCCC(=O)Nc1cccc(NC(=O)c2ccccc2Br)c1`: the relative cell viability was found to be 1.09 ± 0.038.

For the compound `CN1CCN(c2ccc(Nc3cc(-c4cccc(-n5ccc6cc(C7CC7)cc(F)c6c5=O)c4CO)cn(C)c3=O)nc2)CC1`, the relative cell viability worked out at 0.9932 ± 0.0039.

As to `CN(C)C(=O)c1cc2cnc(Nc3ccc(N4CCNCC4)cn3)nc2n1C1CCCC1`, the relative cell viability turned out to be 1.147 ± 0.008.

On to `CC(=O)O[C@]1(C(C)=O)CC[C@H]2[C@@H]3C=C(C)C4=CC(=O)CC[C@]4(C)[C@H]3CC[C@@]21C` [Megestrol Acetate], for which the relative cell viability amounted to 1.15 ± 0.17.

In the case of `C=C1[C@H](CO)[C@@H](O)C[C@@H]1n1cnc2c(=O)[nH]c(N)nc21` [Entecavir Hydrate], the relative cell viability worked out at 1.19 ± 0.021.

In the case of `Nc1nnc(-c2cccc(Cl)c2Cl)c(N)n1` [Lamotrigine], the relative cell viability was determined as 1.045 ± 0.0061.

`Brc1ccc(C2CN3CCSC3=N2)cc1` (single isomer, unassigned; (-)) [(-)-p-Bromotetramisole Oxalate] came in with a relative cell viability of 1.18 ± 0.046.

As for `Cc1cc(Nc2cc(CN3CCOCC3)c3nc(C)c(Cc4ccc(Cl)cc4F)n3n2)n[nH]1`, the relative cell viability is 0.986 ± 0.079.

The compound `CC[C@@]1(O)C(=O)OCc2c1cc1n(c2=O)Cc2cc3c(CN(C)C)c(O)ccc3nc2-1` [Topotecan HCl] gave a relative cell viability of 0.524 ± 0.17.

`O=C(NC1CC1)c1cc(-c2cccs2)on1` [Isoxazole 9 (ISX-9)]: the relative cell viability is 1.05 ± 0.022.

In turn, `Oc1cc(O)cc(/C=C/c2ccc(O)c(O)c2)c1` [Piceatannol] registered a relative cell viability of 1.06 ± 0.014.

The compound `Nc1nc(=O)[nH]cc1F` [Flucytosine] registered a relative cell viability of 1.01 ± 0.063.

For the compound `Cc1cccc(-c2[nH]ncc2-c2ccc3ncccc3n2)n1`, the relative cell viability came out at 1.15 ± 0.029.

Regarding `O=C(NCCCNc1nc(Nc2cccc(NC(=O)N3CCCC3)c2)ncc1I)c1cccs1`, the relative cell viability was determined as 0.943 ± 0.017.

`CN1CC[C@@H](c2c(O)cc(O)c3c(=O)cc(-c4ccccc4Cl)oc23)[C@@H]1CO` registered a relative cell viability of 0.501 ± 0.008.

For `CN(Cc1ccc(C(C)(C)C)cc1)Cc1cccc2ccccc12` [Butenafine HCl], the relative cell viability was 1.21 ± 0.024.

`S=c1[nH]cnc2nc[nH]c12` [Mercaptopurine (6-MP)] returned a relative cell viability of 1.05 ± 0.025.

Compound `NS(=O)(=O)c1ccc(NC(=O)Nc2ccc(F)cc2)cc1` displayed a relative cell viability of 1.09 ± 0.013.

`N#CC(=Cc1ccc(-c2cc(Cl)ccc2Cl)o1)C(=O)Nc1cccc2ncccc12` gave a relative cell viability of 1.05 ± 0.003.

For the compound `Cc1cc(F)c(Nc2ncnc3cc(OCc4ccccc4)ccc23)cc1O`, the relative cell viability stood at 1.13 ± 0.024.

As for `O=c1[nH]c(=O)n([C@H]2C[C@H](O)[C@@H](CO)O2)cc1C(F)(F)F` [Trifluridine], the relative cell viability stood at 1.04 ± 0.023.

The compound `Cn1cncc1[C@@](N)(c1ccc(Cl)cc1)c1ccc2c(c1)c(-c1cccc(Cl)c1)cc(=O)n2C` [Tipifarnib] came in with a relative cell viability of 0.9723 ± 0.0062.

As to `Cc1cc(C#N)cc(C)c1Oc1nc(Nc2ccc(C#N)cc2)nc(N)c1Br` [Etravirine (TMC125)], the relative cell viability turned out to be 1.13 ± 0.021.

In turn, `Cc1nc2c(O)cccc2c(=O)[nH]1` returned a relative cell viability of 1.16 ± 0.089.

Compound `O=C(NNc1ccccc1)c1ccncc1` displayed a relative cell viability of 1.06 ± 0.051.

As to `CC(C)n1cnc2c(NCCc3ccc(O)cc3)nc(-c3csc4ccccc34)nc21` [StemRegenin 1 (SR1)], the relative cell viability is 1.15 ± 0.051.

Compound `NC1=NCC2c3ccccc3Cc3ccccc3N12` (centres undefined) [Epinastine HCl] registered a relative cell viability of 1.05 ± 0.014.

As for `NC(=O)N1c2ccccc2CC(=O)c2ccccc21` [Oxcarbazepine], the relative cell viability turned out to be 0.947 ± 0.022.

In the case of `Oc1nc(-c2ccc(C(F)(F)F)cc2)nc2c1CSCC2`, the relative cell viability came out at 1.21 ± 0.024.

`Cc1nc2ccc(NC(=O)Nc3ccnc4cccnc34)cc2o1` gave a relative cell viability of 1.19 ± 0.044.

For `Cc1ccc(Cl)cc1N(CC(=O)Nc1c(F)cccc1F)S(C)(=O)=O`, the relative cell viability was determined as 1.166 ± 0.01.

With `O=C1N=C(O)NC1(c1ccccc1)c1ccccc1` [Phenytoin sodium], the relative cell viability was 1.033 ± 0.0082.

Consider `COc1ccc(OC)c(C2C(C#N)=C(N)Oc3n[nH]c(-c4ccc5ccccc5c4)c32)c1` (centres undefined), for which the relative cell viability came to 1.04 ± 0.023.

`CCNc1nc(Nc2cc(F)c(C(=O)N3CCOCC3)cc2OC)ncc1C(F)(F)F`: the relative cell viability is 1.23 ± 0.012.

For the compound `COc1cc(NS(=O)(=O)c2ccc(N)cc2)nc(OC)n1` [Sulphadimethoxine], the relative cell viability turned out to be 1.07 ± 0.042.
